Over roughly 33,000 sequences, “E-score (-0.5 to 0.5)” has its median near -0.012; the highest 2% begin near 0.27. This is one part of the list.

In this assay the target is T1, Vhr1 (UniProt P40522).
T1 sequence: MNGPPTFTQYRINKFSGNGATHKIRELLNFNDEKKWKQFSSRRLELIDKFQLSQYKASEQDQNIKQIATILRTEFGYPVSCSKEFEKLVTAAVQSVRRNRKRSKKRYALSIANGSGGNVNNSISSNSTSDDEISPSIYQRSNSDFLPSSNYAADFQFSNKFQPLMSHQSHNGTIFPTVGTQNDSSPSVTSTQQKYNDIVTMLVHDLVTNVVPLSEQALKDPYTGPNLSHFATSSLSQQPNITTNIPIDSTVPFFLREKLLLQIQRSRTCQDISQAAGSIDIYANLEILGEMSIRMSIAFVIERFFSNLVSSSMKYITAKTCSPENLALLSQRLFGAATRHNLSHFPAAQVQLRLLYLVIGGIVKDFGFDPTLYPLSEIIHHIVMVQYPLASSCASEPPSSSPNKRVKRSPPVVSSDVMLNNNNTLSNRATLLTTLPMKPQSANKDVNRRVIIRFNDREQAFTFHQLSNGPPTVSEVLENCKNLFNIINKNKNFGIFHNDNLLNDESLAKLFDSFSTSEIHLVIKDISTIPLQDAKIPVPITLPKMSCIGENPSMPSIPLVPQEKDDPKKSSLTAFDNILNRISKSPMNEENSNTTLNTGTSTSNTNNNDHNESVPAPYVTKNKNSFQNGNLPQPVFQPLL
In words: PBM E-score (8-mer binding enrichment) (E-score (-0.5 to 0.5)); higher = stronger / more preferred TF binding; most listed sequences are background and not binding sites. The note with it: protein concentration: 200 nM; construct: GST-full length. The procedure, abridged:
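Detection of bound protein used fluorescent anti-GST, with scans normalised by masliner. The proteins were GST-tagged yeast transcription factors applied at about 100-200 nM to universal all-10-mer Agilent arrays made double-stranded by primer extension. Each ungapped eight-base word, pooled with its reverse complement, was scored with an E-score from the Universal PBM Analysis Suite.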
As to GAACATAC, the “PBM E-score” value is 0.00185.

On to ACAAAAAC, for which the “PBM E-score” value was -0.126.

Take GGCAACAC: the “PBM E-score” value was -0.0419.

Take TCCGTACA: the “PBM E-score” value stood at 0.176.

GTATCTAA: the “PBM E-score” value is 0.159.

As for ATCTCGAC, the “PBM E-score” value was found to be 0.0463.

With CGCAGATA, the “PBM E-score” value stood at 0.099.

With GAATGGCA, the “PBM E-score” value is -0.0693.

Take CAGGAGGA: the “PBM E-score” value was -0.143.

GACTACAA: the “PBM E-score” value was 0.19.

Take ACGAGCGA: the “PBM E-score” value came to 0.121.

As to GCGCACAA, the “PBM E-score” value came to 0.181.

Turning to AAGAATAT, the “PBM E-score” value is -0.167.

With CTAGTTGC, the “PBM E-score” value was -0.0715.

Regarding ACAGTGCG, the “PBM E-score” value was found to be 0.0115.

For the sequence GAGCGATA, the “PBM E-score” value worked out at 0.0352.

Turning to ACTCCTCG, the “PBM E-score” value came out at 0.123.

Consider ATAATCGG, for which the “PBM E-score” value is 0.222.

With CCTTGTTA, the “PBM E-score” value is -0.0637.

Take ATACCATC: the “PBM E-score” value stood at 0.124.

ATCTGATG: the “PBM E-score” value is -0.00603.

With GCGGAAAC, the “PBM E-score” value was -0.16.

Consider AGTCGTTA, for which the “PBM E-score” value came out at 0.0407.

Regarding ACGGTGTA, the “PBM E-score” value was 0.0386.

Regarding CGTCCCCC, the “PBM E-score” value was -0.161.

For the sequence AGCAATGC, the “PBM E-score” value was -0.0267.

In the case of AGTCGATA, the “PBM E-score” value was determined as 0.0206.

For the sequence AGATGGGA, the “PBM E-score” value was -0.242.

Regarding AGACAGAT, the “PBM E-score” value was found to be 0.0485.

Regarding ATAAGGCC, the “PBM E-score” value was -0.173.

With AACTCTTG, the “PBM E-score” value is -0.186.

As for AGTCTGGG, the “PBM E-score” value was -0.175.

In the case of AACACGGC, the “PBM E-score” value is -0.0379.

For GTGCGCCA, the “PBM E-score” value is -0.0413.

Regarding GTAAAAAA, the “PBM E-score” value is -0.216.

Consider TGGCTAAA, for which the “PBM E-score” value is -0.0906.

CTCTGCAA: the “PBM E-score” value is -0.0133.

Consider ATTCCTAA, for which the “PBM E-score” value was determined as 0.0904.

Regarding TGTCATAA, the “PBM E-score” value was -0.0558.

In the case of GCGACTCC, the “PBM E-score” value came out at 0.414.

GATCAAAA: the “PBM E-score” value was -0.128.

As to AAACGAAG, the “PBM E-score” value was -0.18.

As for CGACGTTC, the “PBM E-score” value was -0.23.

Take ATCTTAGA: the “PBM E-score” value is -0.0279.

On to ATTATGTA, for which the “PBM E-score” value is 0.18.

In the case of GTCGAATA, the “PBM E-score” value was -0.079.

Take CATAATGG: the “PBM E-score” value turned out to be 0.142.

For ATACGCTA, the “PBM E-score” value was 0.106.

With AGACGGAG, the “PBM E-score” value is 0.0828.

Take GATATGAA: the “PBM E-score” value was -0.101.

As to CACAGCGA, the “PBM E-score” value came to 0.226.

With CCGTTACC, the “PBM E-score” value was -0.017.

Regarding ACCGGTTG, the “PBM E-score” value was -0.0863.

For the sequence CGTCTCTC, the “PBM E-score” value was 0.0531.

Consider ACTCTTCA, for which the “PBM E-score” value was determined as 0.131.

As to CACTAATG, the “PBM E-score” value is 0.105.

On to ACCAGTCT, for which the “PBM E-score” value is 0.0104.

In the case of GTGACGCA, the “PBM E-score” value was -0.126.

AAGTATAC: the “PBM E-score” value was found to be 0.00355.

Take ACGTCTGG: the “PBM E-score” value was -0.0808.

As for ACTCCCCC, the “PBM E-score” value is -0.107.

With ACTTGAAC, the “PBM E-score” value is -0.251.

Regarding ACGTCGTG, the “PBM E-score” value worked out at 0.0208.

CCCCACAG: the “PBM E-score” value was -0.0855.

In the case of GATCTACC, the “PBM E-score” value turned out to be 0.182.

Consider GTTCCTCA, for which the “PBM E-score” value is -0.255.

For the sequence AGCAATAG, the “PBM E-score” value is -0.0838.

For the sequence AACATACA, the “PBM E-score” value is -0.0835.

For CGGCTTAA, the “PBM E-score” value was determined as 0.0419.

With ACCGTGCG, the “PBM E-score” value is 0.00367.

For GTAGGCAA, the “PBM E-score” value is -0.107.

For the sequence AGAGGCTA, the “PBM E-score” value was -0.108.

For CAGTCATG, the “PBM E-score” value was 0.406.

As to CAATACTA, the “PBM E-score” value came out at 0.0633.

For AACGACTT, the “PBM E-score” value was -0.216.

Turning to CTTAGAAG, the “PBM E-score” value is -0.251.

For AGCGTATG, the “PBM E-score” value was -0.0585.

For GACTCCTA, the “PBM E-score” value is 0.384.

AGCATCGC: the “PBM E-score” value is -0.0938.

AAACGTTG: the “PBM E-score” value is -0.114.

With CCCGGGTA, the “PBM E-score” value was 0.105.

For CATTCTAC, the “PBM E-score” value was -0.00941.

Regarding CGTAGCTA, the “PBM E-score” value was -0.0465.

Consider AATAATCC, for which the “PBM E-score” value was -0.00265.

In the case of GTACCTAA, the “PBM E-score” value is -0.0816.

As to ACCCGCCC, the “PBM E-score” value was found to be 0.428.

As to AACTCTGG, the “PBM E-score” value is -0.0375.

Take CTGGCTAC: the “PBM E-score” value was 0.0914.

On to CGGGCTGC, for which the “PBM E-score” value is 0.112.

In the case of GATTTATA, the “PBM E-score” value was 0.117.

Regarding AACCCTGC, the “PBM E-score” value is -0.164.

As to ACAATCCT, the “PBM E-score” value is -0.0131.

As for CACATATG, the “PBM E-score” value stood at 0.137.

ATGTGTCA: the “PBM E-score” value is 0.143.

Regarding AGTTTCCA, the “PBM E-score” value was -0.151.

On to ATTGCTGG, for which the “PBM E-score” value is -0.0562.

For the sequence ACGTCTTG, the “PBM E-score” value is -0.244.

Regarding TATCCACA, the “PBM E-score” value turned out to be 0.0724.

For CTATGGAC, the “PBM E-score” value was -0.00601.

Take AGCTATAG: the “PBM E-score” value was -0.337.

As to CGACTACA, the “PBM E-score” value was determined as 0.272.

Take GGGGGTAC: the “PBM E-score” value stood at 0.147.

AGCAAAGA: the “PBM E-score” value is -0.179.

With GAAATTTC, the “PBM E-score” value was -0.369.

Consider AGGACCGC, for which the “PBM E-score” value is -0.164.

As for GAGTACTA, the “PBM E-score” value stood at 0.122.

On to GCAAGCGA, for which the “PBM E-score” value was determined as 0.0938.

With CGACAACC, the “PBM E-score” value is -0.0275.

With AAGGGATA, the “PBM E-score” value is -0.00957.

Regarding AACCAAGA, the “PBM E-score” value amounted to 0.112.

The values above are taken from the supplement of paper PMC3334620.
